# Some of the results follow.
# B1: Gal 9 (Canis lupus) (protein)
# chain: MAFSSSQPPYLSPGVPFSGKIQGGLQDGLKITINGTILYCNGTRFAVNFHSGHSDSDIAFHFNPRFEEGGYVVCNTKQKGSWGSEERKMQMPFQMGNPFELCFMVNSCDFKVTVNGSHFTQYSHRVPFHYVDTLSITGAVQLSYISFQSPGVWQSSSAPITQTVIHTVQTTPGQPFPNPIIPPTAYPTPTYPMPFFTSIPGGLYPSKSIIVSGTVLPGAKRFHINLRSGNDIAFHLNPRFNENTVVRNMQINNSWGSEERSLPRKMPFVQGQSFSVWIMCEGHCFKVAVDGEHLFEYYHRLKNLLAINNMEVAGDVQLTHVQT
# How the values were obtained:
# Experiment in all cases: glycan array binding signal (z-score within array); higher = stronger binding
# Conditions in all cases: glycan notation: IUPAC condensed, linker removed
# [1] = biological target: Fuc(a1-2)[GalNAc(a1-3)]Gal(b1-4)Glc
# How it was run: (§1)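 From the Consortium for Functional Glycomics database, 3228 arrays were curated, keeping only those whose protein sequence was available. Binding is given as a within-array Z-score averaged across arrays sharing a protein sequence and across linkers. Negative Z-scores can be read as non-binding.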
# [2] = biological target: Fuc(a1-2)[GalNAc(a1-3)]Gal(b1-4)GlcNAc
# How it was run: as §1
# [3] = biological target: Fuc(a1-2)[GalNAc(a1-3)]Gal(b1-4)GlcNAc(b1-2)Man(a1-3)[Fuc(a1-2)[GalNAc(a1-3)]Gal(b1-4)GlcNAc(b1-2)Man(a1-6)]Man(b1-4)GlcNAc(b1-4)GlcNAc
# How it was run: as §1
# [4] = biological target: Fuc(a1-2)[GalNAc(a1-3)]Gal(b1-4)GlcNAc(b1-2)Man(a1-3)[Fuc(a1-2)[GalNAc(a1-3)]Gal(b1-4)GlcNAc(b1-2)Man(a1-6)]Man(b1-4)GlcNAc(b1-4)[Fuc(a1-6)]GlcNAc
# How it was run: as §1
# [5] = biological target: Fuc(a1-2)[GalNAc(a1-3)]Gal(b1-4)GlcNAc(b1-3)Gal(b1-4)GlcNAc
# How it was run: as §1
# [6] = biological target: Fuc(a1-2)[GalNAc(a1-3)]Gal(b1-4)GlcNAc(b1-3)Gal(b1-4)GlcNAc(b1-3)Gal(b1-4)GlcNAc
# How it was run: as §1
# [7] = biological target: Fuc(a1-2)[GalNAc(a1-3)]Gal(b1-4)GlcNAc(b1-3)GalNAc
# How it was run: as §1
# [8] = biological target: Fuc(a1-2)[GalNAc(a1-3)]Gal(b1-4)[Fuc(a1-3)]GlcNAc
# How it was run: as §1
# [9] = biological target: Fuc(a1-2)[GalNAc(a1-3)]Gal(b1-4)[Fuc(a1-3)]GlcNAc(b1-3)GalNAc
# How it was run: as §1
# [10] = biological target: Fuc(a1-2)[GalNAc(a1-4)]Gal(b1-4)GlcNAc
# How it was run: as §1
# [11] = biological target: Fuc(a1-2)[GalNAc(b1-3)]Gal
# How it was run: as §1
# [12] = biological target: Fuc(a1-3)GlcNAc
# How it was run: as §1
# [13] = biological target: Fuc(a1-3)[Gal(b1-4)]Glc6S
# How it was run: as §1
# [14] = biological target: Fuc(a1-3)[Gal(b1-4)]GlcNAc
# How it was run: as §1
# [15] = biological target: Fuc(a1-3)[Gal(b1-4)]GlcNAc(b1-2)Man(a1-3)[Fuc(a1-3)[Gal(b1-4)]GlcNAc(b1-2)Man(a1-6)]Man(b1-4)GlcNAc(b1-4)GlcNAc
# How it was run: as §1
# [16] = biological target: Fuc(a1-3)[Gal(b1-4)]GlcNAc(b1-2)Man(a1-3)[Fuc(a1-3)[Gal(b1-4)]GlcNAc(b1-2)Man(a1-6)]Man(b1-4)GlcNAc(b1-4)[Fuc(a1-6)]GlcNAc
# How it was run: as §1
# [17] = biological target: Fuc(a1-3)[Gal(b1-4)]GlcNAc(b1-3)Gal(b1-3)[Fuc(a1-4)]GlcNAc
# How it was run: as §1
# [18] = biological target: Fuc(a1-3)[Gal(b1-4)]GlcNAc(b1-3)GalNAc
# How it was run: as §1
# [19] = biological target: Fuc(a1-3)[Gal(b1-4)]GlcNAc(b1-4)Gal(b1-4)[Fuc(a1-3)]GlcNAc
# How it was run: as §1
# [20] = biological target: Fuc(a1-3)[Gal(b1-4)]GlcNAc(b1-4)Gal(b1-4)[Fuc(a1-3)]GlcNAc(b1-4)Gal(b1-4)[Fuc(a1-3)]GlcNAc
# How it was run: as §1
# [21] = biological target: Fuc(a1-3)[Gal(b1-4)]GlcNAc(b1-6)GalNAc
# How it was run: as §1
# [22] = biological target: Fuc(a1-3)[Gal(b1-4)]GlcNAc(b1-6)[Gal(b1-3)GlcNAc(b1-3)]Gal(b1-4)Glc
# How it was run: as §1
# [23] = biological target: Fuc(a1-3)[Gal(b1-4)]GlcNAc(b1-6)[Neu5Ac(a2-3)Gal(b1-3)]GalNAc
# How it was run: as §1
# [24] = biological target: Fuc(a1-3)[Gal(b1-4)]GlcNAc6S
# How it was run: as §1
# [25] = biological target: Fuc(a1-3)[Gal3S(b1-4)]GlcNAc
# How it was run: as §1
# [26] = biological target: Fuc(a1-3)[Gal3S(b1-4)]GlcNAc6S
# How it was run: as §1
# [27] = biological target: Fuc(a1-3)[GalNAc(b1-4)]GlcNAc
# How it was run: as §1
# [28] = biological target: Fuc(a1-4)GlcNAc
# How it was run: as §1
# [29] = biological target: Fuc(b1-3)GlcNAc
# How it was run: as §1
# [30] = biological target: Gal(a1-2)Gal
# How it was run: as §1
binder,measurement,setting,value
B1,glycan array binding signal (z-score),[1],2.88
same,glycan array binding signal (z-score),[2],1.39
same,glycan array binding signal (z-score),[3],9.39
same,glycan array binding signal (z-score),[4],1.52
same,glycan array binding signal (z-score),[5],5.36
same,glycan array binding signal (z-score),[6],2.68
same,glycan array binding signal (z-score),[7],0.072
same,glycan array binding signal (z-score),[8],-0.321
same,glycan array binding signal (z-score),[9],-0.288
same,glycan array binding signal (z-score),[10],-0.322
same,glycan array binding signal (z-score),[11],-0.025
same,glycan array binding signal (z-score),[12],-0.339
same,glycan array binding signal (z-score),[13],-0.312
same,glycan array binding signal (z-score),[14],-0.334
same,glycan array binding signal (z-score),[15],-0.336
same,glycan array binding signal (z-score),[16],-0.297
same,glycan array binding signal (z-score),[17],-0.332
same,glycan array binding signal (z-score),[18],-0.298
same,glycan array binding signal (z-score),[19],-0.334
same,glycan array binding signal (z-score),[20],-0.299
same,glycan array binding signal (z-score),[21],-0.273
same,glycan array binding signal (z-score),[22],-0.156
same,glycan array binding signal (z-score),[23],0.077
same,glycan array binding signal (z-score),[24],-0.337
same,glycan array binding signal (z-score),[25],-0.336
same,glycan array binding signal (z-score),[26],-0.036
same,glycan array binding signal (z-score),[27],-0.333
same,glycan array binding signal (z-score),[28],-0.346
same,glycan array binding signal (z-score),[29],-0.345
same,glycan array binding signal (z-score),[30],-0.348

# Source: the supplement of paper PMC8728848
